Measured values reported in PubChem BioAssay AID1645882 (National Center for Advancing Translational Sciences (NCATS), 2021).
Screen size: about 16,000 compounds; about 120 (0.75%) were called active. About 4% were inconclusive and are not listed. The call rests on the fitted dose curve; in most records, active means well fitted inhibition curve with a large enough effect; inconclusive means small, poorly fitted or top-dose-only effect; inactive means no such curve, though single readings can be large or run the other way. The list shows a part of the results. *1 amine or outer side, *2 acyl side, *3 side chain or, on linkers, in order; H or OH if unused. Where a SMILES comes first, the peptide text is derived from it. [ ]: non-standard residue; d: D form. X10 = C[C@H](O)[C@@H](C(=O)[*:2])N(C(C)(C)C)[*:1]; X9 = CC(C)(C)N([C@@H](CS)C(=O)[*:2])[*:1]

Target: Rap guanine nucleotide exchange factor 3 (Homo sapiens) (UniProt O95398)
Assay: Validation qHTS for antagonist of cAMP-regulated guanine nucleotide exchange factor 3 (EPAC1);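 further: plate controls were DMSO for no effect and ATA control for full effect; nearly all actives have a fitted effect of over 75% in size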
Conditions: EPAC1 Rap1B-BODIPY-GDP exchange, fluorescence; activity change, negative = inhibition: at the top concentration
How it was run: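 EPAC1 (100 nM) mixed with 250 nM RAP1B-BODIPY-GDP and 50 uM GDP; compounds in concentration series, 5 min at room temperature. Fluorescence (ex 480/em 540 nm) read every 5 min for 30 min; normalized to ATA control and DMSO.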

Sequence of UniProt O95398 (O95398 whole entry, looked up): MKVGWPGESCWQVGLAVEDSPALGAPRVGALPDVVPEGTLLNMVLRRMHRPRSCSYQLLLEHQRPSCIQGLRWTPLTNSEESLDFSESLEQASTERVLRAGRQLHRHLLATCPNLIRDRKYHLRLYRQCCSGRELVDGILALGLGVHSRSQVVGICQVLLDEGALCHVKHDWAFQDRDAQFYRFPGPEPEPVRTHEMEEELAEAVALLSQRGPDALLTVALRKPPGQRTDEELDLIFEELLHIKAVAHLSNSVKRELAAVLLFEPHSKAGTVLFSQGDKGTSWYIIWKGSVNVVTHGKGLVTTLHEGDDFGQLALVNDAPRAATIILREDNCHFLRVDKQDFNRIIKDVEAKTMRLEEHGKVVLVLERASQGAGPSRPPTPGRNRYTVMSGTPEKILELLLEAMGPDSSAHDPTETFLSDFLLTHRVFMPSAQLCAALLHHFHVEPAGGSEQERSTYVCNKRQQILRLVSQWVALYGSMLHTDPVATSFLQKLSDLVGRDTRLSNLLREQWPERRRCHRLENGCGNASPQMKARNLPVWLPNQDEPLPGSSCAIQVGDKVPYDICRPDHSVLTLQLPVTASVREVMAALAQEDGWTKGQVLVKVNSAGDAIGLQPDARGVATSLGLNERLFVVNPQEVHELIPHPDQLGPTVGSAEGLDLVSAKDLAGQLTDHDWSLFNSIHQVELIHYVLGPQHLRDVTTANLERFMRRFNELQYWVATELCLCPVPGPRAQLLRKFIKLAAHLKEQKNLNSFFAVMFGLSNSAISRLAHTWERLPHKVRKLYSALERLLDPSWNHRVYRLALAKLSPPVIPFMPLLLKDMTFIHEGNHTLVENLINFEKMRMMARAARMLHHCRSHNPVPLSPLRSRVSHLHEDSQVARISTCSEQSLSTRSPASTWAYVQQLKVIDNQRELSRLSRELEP

| Compound | activity change, negative = inhibition |
| --- | --- |
| CCCCC[C@@H](O)C1C(=O)OC(C)[C@H](O)/C=C/C=C/C=C/C=C/C=C(\C)C(O)C(O)C(O)C[C@H](O)C[C@H](O)C[C@H](O)C[C@H](O)C[C@@H]1O (stereo partly drawn) | inactive |
| CC(C)[N+](C)(CCC(C(N)=O)(c1ccccc1)c1ccccc1)C(C)C | inactive |
| CCC(Oc1ccc(Cl)cc1)C(=O)OC1CC2CCC(C1)N2C (stereo not drawn) | inactive: 33% |
| COc1ccc2c(c1)C13CCCCC1C(C2)N(C)CC3 (stereo not drawn) | inactive: 18.6% [at 75.8 µM] |
| CC(=O)OC1CC(OC(C)=O)[C@]2(C)C(CC(OC(C)=O)[C@]3(C)C2CC[C@@]2(C)C(c4ccoc4)C(=O)C4O[C@]432)C1(C)C (stereo partly drawn) | inactive: -18.6% |
| CC1=C[C@@H]2c3cccc4[nH]cc(c34)C[C@H]2N(C)C1 | inactive: 1.32% |
| O=[N+]([O-])c1c(Cl)c(Cl)cc(Cl)c1Cl | inactive: 19.2% [at 320 µM] |
| CCCCCCCCCCCCCCCC(=O)OC[C@H](COP(=O)([O-])OCC[N+](C)(C)C)OC(C)=O | inactive: 24.1% [at 15.3 µM] |
| Cc1ccc(N=CN(C)C=Nc2ccc(C)cc2C)c(C)c1 | inactive: 13.5% |
| CC(C)C[C@H](NC(=O)[C@H](Cc1ccccc1)NC(=O)CNC(=O)[C@H](CS)N(C(=O)[C@@H](N)Cc1ccc(O)cc1)C(C)(C)C)C(=O)N([C@H](C(=O)O)[C@H](C)O)C(C)(C)C (H-Y[X9]GFL[X10]-OH) | inactive: 21.4% [at 15.3 µM] |
| C=CCN1CC[C@]23c4c5ccc(O)c4O[C@H]2/C(=N/NC(=O)c2ccccc2)CC[C@@]3(O)[C@H]1C5 | inactive: 23.6% [at 75.8 µM] |
| CNC1(c2ccccc2Cl)CCCCC1=O (stereo not drawn) | inactive |
| CC(C)CC(N(C)C)C1(c2ccc(Cl)cc2)CCC1 (stereo not drawn) | inactive: 8.13% |
| N#CN | inactive: 7.44% |
| CNC(C)C(O)c1ccc(O)cc1 (stereo not drawn) | inactive |
| CNC(=O)O/N=C(/C)SC | inactive: 20.8% |
| COc1ccc(CC2c3cc(OC)c(OC)cc3CCN2C)cc1OC (stereo not drawn) | inactive: 9.88% |
| CC(C)(C)NC[C@H](O)c1ccc(O)cc1Cl | inactive: 23.9% |
| COC(C)(C)CCCC(C)C/C=C/C(C)=C/C(=O)OC(C)C (stereo not drawn) | inactive |
| N#Cc1ccc(CN2CCC3(CC2)CCN(C(=O)Oc2ccccc2)CC3)cc1 | inactive: 3.01% |
| CC(C)[C@H]1C(=O)N2CCC[C@H]2[C@]2(O)O[C@](NC(=O)[C@@H]3C[C@@H]4c5cccc6[nH]cc(c56)C[C@H]4N(C)C3)(C(C)C)C(=O)N12 | inactive: 28.6% |
| CCOC(=O)c1ccccc1C(=O)OCC | inactive: 6.17% |
| O=C(Nc1ccccc1)N1CCC2(CC1)CCN(C(=O)Oc1ccccc1)CC2 | inactive: 7.29% |
| NC(N)=NOCC[C@H](N)C(=O)O | inactive |
| O=C(O)c1ccccc1-c1c2cc(Br)c(=O)cc-2oc2[c]([Hg])c(O)c(Br)cc12 | inactive: -157% |

| Compound | activity change, negative = inhibition |
| --- | --- |
| N[C@@H](Cn1oc(=O)[nH]c1=O)C(=O)O | inactive |
| CC[C@H]1C[C@H]2[C@@H]3CCC4=CC(=O)CC[C@@H]4[C@H]3CC[C@]2(C)[C@H]1O | inactive: 24.8% |
| O=C1CC[C@]2(O)C3Cc4ccc(O)c5c4C2(CCN3CC2CC2)C1O5 (stereo partly drawn) | inactive: 7.9% |
| Oc1cc[c]([Hg][Cl])cc1 | inactive |
| c1ccc2c(c1)Sc1ccccc1N2CC1CN2CCC1CC2 (stereo not drawn) | inactive: 28.4% |
| COC(=O)COc1ccc(Cl)cc1Cl | inactive: 3.93% |
| S=C(NC1CCCCC1)N1CCC(c2cnc[nH]2)CC1 | inactive |
| C[N+]1(CCC(C(N)=O)(c2ccccc2)c2ccccc2)CCCCC1 | inactive: -8.26% |
| CC(C)CN1CCC2(CC1)CCN(C(=O)Oc1ccccc1)CC2 | inactive: 17.5% |
| O=P1(N(CCCl)CCCl)NC(OO)CCO1 (stereo not drawn) | inactive: 5.54% |
| COC(=O)/C=C\C(=O)N[C@@H]1CC[C@@]2(O)[C@H]3Cc4ccc(O)c5c4[C@@]2(CCN3CC2CC2)[C@@H]1O5 | inactive: 13.7% |
| CC[C@H]1[C@@H]2C[C@H]3[C@@H]4N(C)c5ccccc5[C@]45C[C@@H](C2[C@H]5O)N3[C@@H]1O (stereo partly drawn) | inactive: -10% [at 75.8 µM] |
| CN1CCC2(CC1)CCN(C(=O)c1ccco1)CC2 | inactive: 8.82% |
| CCCCCCCCCCCCCC(=O)OC1C(C)[C@@]2(O)C(C=C(CO)C[C@]3(O)C(=O)C(C)=C[C@H]23)[C@@H]2C(C)(C)[C@]12OC(C)=O (stereo partly drawn) | inactive: -17.6% |
| ClCC1CO1 (stereo not drawn) | inactive: 9.84% |
| C/C=C1/C[N@@+]2(C)CC[C@]34C(=C(C=O)[C@H]1C[C@H]32)Nc1ccccc14 | inactive: -4.2% |
| CCCC(C)(COC(N)=O)COC(N)=O | inactive: 21.1% |
| CN1CCCC2(CCN(C(=O)c3ccco3)CC2)C1 | inactive: 10.4% |
| CC1=NCCc2c1[nH]c1cc(O)ccc21 | inactive |
| COC(=O)N1CCC2(CCN(CC(C)C)CC2)CC1 | inactive: 4.19% |
| Clc1cnc(Oc2ccc(Oc3ncc(Cl)cc3Cl)cc2)c(Cl)c1 | inactive |
| [O]=[Cd] | inactive: 16.4% |
| COc1c2c(c(CC=C(C)C)c3oc(=O)c(-c4ccc(O)cc4)c(O)c13)OC(C)(C)C=C2 | inactive: -16.9% |
| CCCN(CCC)[C@@H]1CCc2ccc(O)cc2C1 | inactive |
| CNCCc1ccc(O)c(O)c1 | inactive |

| Compound | activity change, negative = inhibition |
| --- | --- |
| OC[C@H]1O[C@@H](n2cnc3cc(Cl)c(Cl)cc32)[C@H](O)[C@H]1O | inactive: 34% |
| CN(C(=O)Cc1ccc(Cl)c(Cl)c1)[C@H](CN1CCCC1)c1ccccc1 | inactive |
| CNNC | inactive: 11.5% |
| CCN1C[C@]2(COC(=O)c3ccccc3N3C(=O)C[C@H](C)C3=O)CC[C@H](OC)[C@@]34[C@@H]5C[C@H]6[C@H](OC)[C@H]5[C@](O)(C[C@@H]6OC)[C@@](O)([C@@H](OC)[C@@H]23)[C@@H]14 | inactive: -5.23% |
| NCC(=O)c1ccc(Cl)c(Cl)c1 | inactive: 16.1% |
| CC1OC(=O)C(C(C)C)NC(=O)C(C(C)C)OC(=O)C(C(C)C)NC(=O)C(C)OC(=O)C(C(C)C)NC(=O)C(C(C)C)OC(=O)C(C(C)C)NC(=O)C(C)OC(=O)C(C(C)C)NC(=O)C(C(C)C)OC(=O)C(C(C)C)NC1=O (stereo not drawn) | inactive: -5.43% [at 75.8 µM] |
| COC1C(O)C(C)O[C@@H](OC2CC[C@@]3(C)C4CC[C@]5(C)C(C6=CC(=O)OC6)CC[C@@]5(O)C4CC[C@@H]3C2)C1O (stereo partly drawn) | inactive: 21.8% |
| CC1(C)[C@@H](O)C[C@H]2[C@](C)(O)[C@@H]3CC[C@H]4[C@@H](O)[C@@]3(C[C@@H](O)[C@@]21O)C[C@@]4(C)O | inactive |
| C=CC[C@]1(O)CC[C@H]2[C@@H]3CCC4=CC(=O)CCC4=C3C=C[C@@]21C | inactive: 33.5% |
| C[C@@H]1O[C@H](C[N+](C)(C)C)C[C@@H]1O | inactive: 9.38% |
| CS(=O)(=O)c1ccc(C(=O)C2C(=O)CCCC2=O)c([N+](=O)[O-])c1 | inactive: 34.6% [at 320 µM] |
| C=CCN1CC[C@]23c4c5ccc(O)c4OC2C(=O)CC[C@]3(O)C1C5 (stereo partly drawn) | inactive: 8.06% |
| COc1cc2c(cc1OC)-c1c(O)c(OC)cc3c1[C@H](C2)N(C)CC3 | inactive: 5.87% |
| CCOc1ccc2c3c1O[C@H]1[C@@H](O)C=C[C@H]4[C@@H](C2)N(C)CC[C@@]341 | inactive: 19% |
| Cn1cnc(CCN)c1 | inactive: -4.39% [at 75.8 µM] |
| COc1cc2c(cc1OC)-c1c(OC)c(OC)c(C=O)c3c1[C@H](C2)N(C)CC3 | inactive: -8.9% |
| Cc1ccccc1-n1c(CF)nc2ccc(N)cc2c1=O | inactive: 6.26% |
| COc1ccc(NC(=O)N2CCCC3(CCN(C(=O)Oc4ccccc4)CC3)C2)cc1 | inactive: 13.8% |
| CC(Cc1ccc(O)cc1)NCC(O)c1cc(O)cc(O)c1 (stereo not drawn) | inactive |
| C/C(=C\c1csc(C)n1)[C@@H]1C[C@@H]2O[C@]2(C)CCC[C@H](C)[C@H](O)[C@@H](C)C(=O)C(C)(C)[C@@H](O)CC(=O)O1 | inactive: 14.9% |
| C=C[C@H]1CN2CC[C@H]1C[C@@H]2[C@@H](O)c1ccnc2ccccc12 | inactive: 8.42% |
| CCN(CC)C(=O)/C(Cl)=C(\C)OP(=O)(OC)OC | inactive: 20.2% |
| Nc1ncnc2c1ncn2[C@@H]1O[C@H](COP(=O)(O)CP(=O)(O)O)[C@@H](O)[C@H]1O | inactive: 18.7% |
| C=CCN=C=S | inactive: 14.8% |
| CN(N=O)c1ccc(O)c(O)c1 | inactive: -8.92% [at 75.8 µM] |

| Compound | activity change, negative = inhibition |
| --- | --- |
| CCN1C[C@]2(C)CC[C@H](O)[C@@]34C5C[C@@H]6[C@@H](OC)C[C@@](O)(C5[C@H]6O)[C@@H](CC23)[C@@H]14 (stereo partly drawn) | inactive |
| CC[C@H](O)C(C[C@H](C)N(C)C)(c1ccccc1)c1ccccc1 | inactive: 40.7% [at 320 µM] |
| CCOC(=O)[C@]12Cc3cc(Cl)ccc3[C@H]1N(Cc1ccccc1)C(=O)c1ccccc12 | inactive: -13.3% |
| c1cc2c(cc1[C@H]1OC[C@@H]3[C@H]1CO[C@H]3c1ccc3c(c1)OCO3)OCO2 | inactive: -0.359% |
| CSc1nc(NC(C)C)nc(NC(C)C)n1 | inactive: 3.33% |
| CCN1C[C@]2(COC)C(O)C[C@H](OC)[C@@]34C5C[C@]6(O)C(OC)C(O)[C@](OC(C)=O)(C5C6OC(=O)c5ccccc5)C(C(OC)C23)C14 (stereo partly drawn) | inactive: 10.2% |
| CCCN1CCC[C@@H]2Cc3nc(N)ncc3C[C@H]21 | inactive |
| CCN[C@@H](C)Cc1ccccc1 | inactive: 31.8% [at 320 µM] |
| OCC1CCCN2CCCCC12 (stereo not drawn) | inactive: 12.6% |
| COc1cc(CC(C)N)cc2c1OCO2 (stereo not drawn) | inactive: -1.66% [at 320 µM] |
| CCC(=O)OC1CCC2C3CCC4=CC(=O)CC[C@@]4(C)C3CC[C@]12C (stereo partly drawn) | inactive: 1.82% |
| C=CCN1C[C@H](C)N([C@H](c2ccc(C(=O)N(CC)CC)cc2)c2cccc(O)c2)C[C@H]1C | inactive: 3.36% |
| C=CCN1C[C@H](C)N([C@H](c2ccc(C(=O)N(CC)CC)cc2)c2cccc(OC)c2)C[C@H]1C | inactive |
| c1cc2c(cc1C1OC[C@@H]3C(c4ccc5c(c4)OCO5)OCC13)OCO2 (stereo partly drawn) | inactive: 9.58% |
| O=C(O)c1ccc(NC(=O)N2C[C@H]3C[C@@H](C2)c2cccc(=O)n2C3)cc1 | inactive: 3.8% |
| CCCCCCC[n+]1ccc(-c2cc[n+](CCCCCCC)cc2)cc1 | inactive: 3.21% |
| OC1CCCCC1N1CCC(c2ccccc2)CC1 (stereo not drawn) | inactive |
| CC(Cc1ccc(OCC(=O)O)cc1)NCC(O)c1cccc(Cl)c1 (stereo not drawn) | inactive |
| CC(C)=CCOc1c2occc2cc2ccc(=O)oc12 | inactive |
| NC(=O)c1ccc(N)nc1 | inactive: 16.1% |
| N[C@@H](Cc1ccc(N(CCCl)CCCl)cc1)C(=O)O | inactive: 20.6% |
| CC1=CC(=O)c2c(O)cccc2C1=O | inactive: -10.8% |
| COC(=O)/C(C)=C\CC12OC(C)(C)C3CC(C=C4C(=O)c5c(OC)c6c(c(CC=C(C)C)c5OC431)OC(C)(CCC=C(C)C)C=C6)C2=O (stereo not drawn) | inactive: 5.89% |
